Ten compounds from the antibiotic and cytotoxicity screens of Wong et al. (2023) can be followed below.

The test system of experiment [1] is HSkMC (human skeletal muscle cells). Put plainly: cytotoxicity call (relative viability < 0.9). The note with it: 10 µM.
In experiment [2] the test system is S. aureus RN4220. Description: growth inhibition call (relative growth <= 0.2). The note with it: 50 µM.

Structures are written as SMILES. Some of the results follow.

Take `Cc1noc(C)c1NC(=O)N(C)C[C@H]1OCCCC[C@@H](C)Oc2ccc(NC(=O)Nc3ccccc3)cc2C(=O)N([C@@H](C)CO)C[C@H]1C`: the cytotoxicity call in experiment [1] was “inactive”. The growth inhibition call in experiment [2] is “inactive”.
`COCC(=O)N1C[C@H](C)[C@@H](OC)CN(C)C(=O)c2cc(NC(=O)c3cc(C)on3)ccc2OC[C@H]1C`: in experiment [1], the cytotoxicity call is “inactive”. Moreover, in experiment [2], the growth inhibition call is “inactive”.
With `C[C@H]1CN([C@@H](C)CO)C(=O)c2cc(NC(=O)Cn3cnnn3)ccc2O[C@@H]1CN(C)S(=O)(=O)c1ccc(Cl)cc1`, the cytotoxicity call in experiment [1] is “inactive”. The growth inhibition call in experiment [2] is “inactive”.
Regarding `COc1ccc([Si](C)(C)[C@H]2[C@H](CC(=O)N(CCO)Cc3ccccc3)O[C@@]3(C(=O)N(Cc4cccc(N5CCOC5=O)c4)c4ccccc43)[C@@H]2C)cc1`, the cytotoxicity call in experiment [1] is “inactive”. Also, the growth inhibition call in experiment [2] is “inactive”.
For `CCCNC(=O)N1C[C@@H](O)COC[C@H]2O[C@@H](CC(=O)NCCCN3CCOCC3)CC[C@@H]21`, in experiment [1], the cytotoxicity call is “inactive”. For the same compound, in experiment [2], the growth inhibition call was “inactive”.
For `CO[C@@H]1CN(C)C(=O)c2cc(NC(=O)C3CCCC3)ccc2OC[C@@H](C)N(C(=O)Nc2ccc(C(F)(F)F)cc2)C[C@H]1C`, the cytotoxicity call in experiment [1] was “inactive”. Further, in experiment [2], the growth inhibition call is “inactive”.
Regarding `C[C@@H]1CN([C@@H](C)CO)C(=O)c2cc(NC(=O)Nc3ccccc3)ccc2O[C@@H](C)CCCCO[C@H]1CN(C)Cc1ccc(C(F)(F)F)cc1`, the cytotoxicity call in experiment [1] was “active”. The growth inhibition call in experiment [2] is “inactive”.
Taken in the same sequence, the figures for `CC(C)CNC(=O)C(=O)NCc1ccccn1` were “inactive” and “inactive”.
On the same counts, the results for `CCS(=O)(=O)N1C[C@]2(CCN(CC2)C(=O)c2cccnc2)c2c(n(c3cc(ccc23)OC)C)[C@@H]1CO` are “inactive” and “inactive”.
On the same counts, the results for `COc1ccc(NC(=O)Nc2cccc3c2O[C@@H](CN(C)C(=O)Nc2ccc(C(F)(F)F)cc2)[C@@H](C)CN([C@@H](C)CO)C3=O)cc1` are “inactive” and “inactive”.
